Screen size: about 43,000 compounds; about 200 (0.47%) were called active. Roughly 12% stayed inconclusive and do not appear here. The call rests on the fitted dose curve; in most records, active means well fitted cell-killing curve with a large enough effect; inconclusive means small, poorly fitted or top-dose-only effect, or effect the other way; inactive means flat fitted curve, though single readings scatter. The list shows a part of the results.
Assay: Cell viability qHTS assay in S16 Pmp22-F2sN cells; further: nearly all actives have a fitted effect of over 65% in size
Details: S16 Pmp22-F2sN Schwann cells (luciferase reporters placed in the Pmp22 gene) viability, CellTiter-Glo, 24 h; series mostly up to 57.5 µM; activity change, negative = cytotoxicity: at the top concentration
Outline: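 Seed 500-1,000 S16 Pmp22-F2sN cells per well in phenol-red-free DMEM with 10% heat-inactivated FBS; pin-add 23 nL compound; incubate 24 h at 37C; add CellTiter-Glo, wait 15 min protected from light; read luminescence.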
On the % scale 0 is the no-effect control and ±100 the full control effect.

Row | Compound | activity change, negative = cytotoxicity
1 | COc1ccccc1N(CC(=O)Nc1ccccc1C(F)(F)F)S(=O)(=O)c1ccc(C)cc1 | inactive: 18.7%
2 | Cc1ccc(C)c(N2CCN(C(=O)Cn3nc(C)c4sc5ccccc5c4c3=O)CC2)c1 | inactive: 5.81%
3 | COc1ccc(OC)c(NC(=O)C(C)n2c(=O)c(-c3ccccc3NC(C)=O)nc3ccccc32)c1 (configuration not stated) | inactive: -0.704%
4 | O=C(CC1Sc2ccccc2NC1=O)Nc1cccc(C(F)(F)F)c1 (configuration not stated) | inactive: 29.6%
5 | COc1ccc(-c2nc(CSCC(=O)NCCC(C)C)c(C)o2)cc1OC | inactive: -4.68%
6 | CCOc1ccc(NC(=O)CSc2nc3ccsc3c(=O)n2CCC(C)C)cc1 | inactive: 2.2%
7 | Cc1ccc(NC(=O)C2CCN(S(=O)(=O)c3ccc4c(c3)CCCC(=O)N4)CC2)cc1N(C)C | inactive: 4.99%
8 | COc1ccc(OC)c(NC(=O)C2CCN(S(=O)(=O)c3ccc4c(c3)CC(C)N4C(C)=O)CC2)c1 (configuration not stated) | inactive: 22.9%
9 | COc1cccc(C2C(C(N)=O)=C(C)Nc3ncnn32)c1 (configuration not stated) | inactive: -1.9%
10 | O=C(CSc1nc2c(oc3ccccc32)c(=O)n1-c1ccccc1)Nc1ccc(F)c(Cl)c1 | inactive: 19.1%
11 | COc1ccc(OC)c(NC(=O)C2=C(C)C(=O)OC23CCN(C(C)C)CC3)c1 | inactive: -19%
12 | Fc1ccc(N2CCN(c3ncnc4onc(-c5ccc(Cl)cc5)c34)CC2)cc1 | inactive: -7.42%
13 | O=C(c1ccc2c(c1)N(Cc1ccc(Cl)cc1)C(=O)c1ccccc1S2(=O)=O)N1CCOCC1 | inactive: 23.6%
14 | CCCCC(CC)CNC(=O)CCCCCn1c(=O)[nH]c2ccsc2c1=O (configuration not stated) | inactive: -23%
15 | CCc1ccc(-n2c(=O)c3ccccc3n(Cc3ccccc3C#N)c2=O)cc1 | inactive: 14.4%
16 | CCOc1ccccc1NC(=O)Cn1c(=O)n(Cc2ccco2)c(=O)c2sc3ccccc3c21 | inactive: -0.737%
17 | CCOC(=O)c1c(NC(C)=O)c2c3c(sc2n1Cc1cc(C)ccc1C)CCCC3 | inactive: 20.2%
18 | O=C(O)CCn1ccc2cc(S(=O)(=O)N3CCCCCC3)ccc21 | inactive: -9.7%
19 | CSc1ccc(CCNC(=O)c2csc3c2CCCCC3)cc1 | inactive: -2.6%
20 | Cc1cc(C)c(NC(=O)C(=O)NCCc2csc(-c3ccc(F)cc3)n2)c(C)c1 | inactive: 3.74%
21 | CN(C)c1ccc(CNC(=O)c2ccc3nc(Cc4ccccc4)oc3c2)cc1 | inactive: -26.2%
22 | Cc1nc2nc(NCc3ccc(Br)cc3)[nH]n2c(=O)c1Cc1ccccc1 | inactive: -2.71%
23 | CCCCOc1ccc(C(=O)Nc2cccc(-c3nc4ccccc4o3)c2C)cc1 | inactive: 20.2%
24 | Cc1cccn2c(=O)c(C(=O)N3CCN(c4ccccc4)CC3)cnc12 | inactive: -1.41%
25 | Cc1ccc(C(=O)c2c(N)c(C(=O)Nc3cccc(C(F)(F)F)c3)c3ccccn23)cc1 | inactive: 19.4%

Row | Compound | activity change, negative = cytotoxicity
26 | Cc1ccc(-n2c(=O)c3oc4ccccc4c3n(Cc3cccc(F)c3)c2=O)cc1C | inactive: -12.8%
27 | COc1cc(NC(=O)c2nn(C)c3c2COc2ccccc2-3)cc(OC)c1OC | inactive: -3.72%
28 | CCOc1ccccc1NC(=O)C1=C(C)Nc2ncnn2C1c1ccco1 (configuration not stated) | inactive: -2.3%
29 | COc1ccc(CCNC(=O)c2ccc(Cn3c(SCc4ccccc4)nc4cccnc43)cc2)cc1 | inactive: 13.3%
30 | CCc1cnc2c(c1SC(C(C)=O)C(=O)N(C)C)c(=O)n(C)c(=O)n2C (configuration not stated) | inactive: -17.9%
31 | O=C(CCn1c(=O)c2ccccc2n(CC(=O)Nc2ccc(F)cc2)c1=O)NCCc1ccccc1 | inactive: 3.61%
32 | COc1ccc(CC(=O)NCC(c2cccs2)S(=O)(=O)c2ccc(F)cc2)cc1 (configuration not stated) | inactive: -3.98%
33 | O=C(CN1CCN(Cc2ccccc2F)C1=O)NCc1ccccc1 | inactive: 2.15%
34 | Cc1ccc(C(=O)N(Cc2ccco2)c2ccccn2)cc1 | inactive: 0.476%
35 | COc1ccccc1NC(=O)c1cnn(-c2ccccc2)c1-n1cccc1 | inactive: 2.73%
36 | CCc1ccc(C2CC(=O)Nc3c2c(=O)nc2c(C)cccn32)cc1 (configuration not stated) | inactive: -0.57%
37 | CC(C)c1ccc(NC(=O)c2ccc(CN3CC(=O)N4CCCCC4C3=O)cc2)cc1 (configuration not stated) | inactive: 17.9%
38 | COc1ccccc1C(=O)Nc1ccc(C(=O)OCc2cc(=O)n3c4c(sc3n2)CCCC4)cc1 | inactive: -0.77%
39 | CCOc1ccc(C2C(C(N)=O)=C(C)Nc3nc(SCc4ccccc4F)nn32)cc1 (configuration not stated) | inactive: 15.5%
40 | COc1ccc(-c2nc3sc(CCNC(=O)C(=O)Nc4ccccc4C#N)c(C)n3n2)cc1 | inactive: -5.14%
41 | CCOC(=O)c1ccccc1NC(=O)c1c(C)oc2ncnc(N3CCOCC3)c12 | inactive: 3.72%
42 | COc1cccc(-n2c(=O)c3c(C)c(C)sc3n(Cc3ccccc3C#N)c2=O)c1 | inactive: 3.91%
43 | Cc1cccc(C(=O)Nc2ccccc2OCc2cc(=O)n3cc(C)ccc3n2)c1 | inactive: 7.9%
44 | Cc1c(Cl)cccc1NC(=O)Cn1c(=O)n(Cc2ccco2)c(=O)c2oc3ccccc3c21 | inactive: -4.5%
45 | COC(=O)c1c(Oc2ccc(Br)cc2)nnc(-c2ccccc2)c1-c1ccccc1 | inactive: -12.4%
46 | Cc1ccc(CN2CCC(CNC(=O)Nc3cccc(C)c3C)C2)cc1 (configuration not stated) | inactive: -11.2%
47 | O=C1CC(c2ccc(Br)cc2)c2c(ccc3ccccc23)N1 (configuration not stated) | inactive: 0.194%
48 | CC(C)n1c(=O)c2oc3ccccc3c2n(CC(=O)Nc2ccccc2Cl)c1=O | inactive: 22.5%
49 | COc1ccccc1-c1c(C)nn2c(N3CCN(c4ccc(F)cc4)CC3)cc(C)nc12 | inactive: 21.3%
50 | CCN(CC)CCCNc1oc(-c2ccc(OC)cc2)nc1C#N | inactive: 14.7%

Row | Compound | activity change, negative = cytotoxicity
51 | COC(=O)c1cc2sccc2n1Cc1nc(-c2ccc(C)cc2)oc1C | inactive: -1.81%
52 | Cc1cc(C)c(NC(=O)C2CCCN(C(=O)c3cnn(-c4ccccc4)c3-n3cccc3)C2)c(C)c1 (configuration not stated) | inactive: -22.9%
53 | CCc1ccccc1NC(=O)c1ccc2c(c1)c(C)c(C)n2Cc1ccccc1 | inactive: -22.3%
54 | CN(C(=O)CSc1nc2ccccc2n1CC(=O)N(C)C1CCCCC1)c1ccc(F)cc1 | inactive: -9.91%
55 | CC(=O)Nc1ccc2nc(SCCOc3ccccc3Cl)sc2c1 | inactive: -5.83%
56 | CCCCN(c1ccccc1)c1ncnc2c1cnn2-c1cccc(C)c1 | inactive: 2.45%
57 | CCOc1ccc(NC(=O)Cn2c(=O)n(-c3ccccc3)c(=O)c3c4c(sc32)CCCC4)cc1 | inactive: 17.2%
58 | CCc1nnc2c3ccccc3nc(N3CCN(c4cc(Cl)ccc4C)CC3)n12 | inactive: 5.2%
59 | O=C(COc1ccc(Br)cc1)Nc1ccc(C(=O)OC2CCCCC2)cc1 | inactive: -5.06%
60 | O=C(Cn1cc(S(=O)(=O)Cc2ccccc2Cl)c2ccccc21)Nc1ccc(F)cc1F | inactive: -25.1%
61 | Cc1ccc(Cn2c(CO)cnc2SCC(=O)Nc2cccc(F)c2)cc1 | inactive: 20.3%
62 | COc1ccc(-c2noc(-c3ccc(NCCc4ccccc4)c([N+](=O)[O-])c3)n2)cc1 | inactive: -1.83%
63 | CCOc1ccc(S(=O)(=O)N2CCC(n3c(C)nc4cccnc43)CC2)cc1 | inactive: -26.1%
64 | COC(=O)c1ccc2c(c1)N(Cc1cc(C)ccc1C)C(=O)c1ccccc1S2(=O)=O | inactive: 0.095%
65 | O=C(Cn1ncc2c(Cl)cccc21)NCc1cccc(F)c1 | inactive: -0.747%
66 | CCOc1ccc(CNC(=O)c2ccc3c(c2)N(Cc2ccccc2)CCS3)cc1 | inactive: -3.54%
67 | Cc1oc2ncn(CC(C)C)c(=O)c2c1C(=O)NCCCN(C)Cc1ccccc1 | inactive: 7.96%
68 | COc1cc(-c2nnc(SCCOc3ccccc3)o2)cc(OC)c1OC | inactive: -6.01%
69 | CCOC(=O)Cn1c(=O)oc2cc(S(=O)(=O)Nc3ccccc3F)ccc21 | inactive: -11.1%
70 | CCOC(=O)c1c(SCC(=O)Nc2cccc(C)c2C)nc(=O)[nH]c1C | inactive: -4.07%
71 | Cc1oc2c(C)c3oc(=O)c(CCC(=O)N4CCCCC4)c(C)c3cc2c1C | inactive: -20.1%
72 | Cc1cc2oc(C(=O)Nc3ccc(S(=O)(=O)N(C)c4ccccc4)cc3)cc(=O)c2cc1C | inactive: -1.67%
73 | O=S(=O)(c1ccc2nc(Nc3ccc(Br)cc3F)ccc2c1)N1CCCCC1 | inactive: 12.6%
74 | CCSc1nc2sc3c(c2c(=O)n1-c1ccc(C)c(Cl)c1)CCN(C(C)=O)C3 | inactive: 27.9%
75 | Cc1ccc(NC(=O)CSc2nccn2-c2ccccc2)cc1 | inactive: -12.3%

Row | Compound | activity change, negative = cytotoxicity
76 | O=C(COc1ccccc1Cl)Nc1ccc2nc(SCC(=O)N3CCOCC3)sc2c1 | inactive: 3.77%
77 | CCc1nccn1S(=O)(=O)c1cc(Br)ccc1Br | inactive: 0.25%
78 | COc1ccc(C)cc1NC(=O)CN(C)S(=O)(=O)c1ccc2[nH]c(=O)oc2c1 | inactive: -6.16%
79 | CCc1ccc(-c2[nH]nc3nc(-c4cc(OC)ccc4OC)cc(C(=O)O)c23)cc1 | inactive: -0.791%
80 | COC(=O)c1sccc1S(=O)(=O)N(CC(=O)Nc1cc(F)ccc1F)c1ccc(C)c(C)c1 | inactive: -21.4%
81 | Cc1ccccc1Cn1cc(S(=O)(=O)c2ccc(F)cc2)c(=O)c2cc3c(cc21)OCO3 | inactive: 23.8%
82 | Cc1ccc(NC(=O)Cn2c(=O)n(CCCCC(=O)NCCc3ccccc3)c(=O)c3ccccc32)cc1 | inactive: 5.08%
83 | Cc1cc(=O)n(Cc2ccc(Br)cc2F)c2c1c(C)nn2-c1ccccc1 | inactive: -1.11%
84 | O=C(CCNS(=O)(=O)c1ccc2c(c1)CCCC(=O)N2)NCc1ccc(Cl)cc1 | inactive: -0.669%
85 | Cc1cc(Cl)ccc1OCCSc1nnc(-c2cccs2)o1 | inactive: -19.6%
86 | CCOc1ccc(NC(=O)N2CCN(C(=O)c3nsc4ccccc34)CC2)cc1 | inactive: -4.49%
87 | Cc1cccc(NC(=O)c2ccc(Cn3nc(N4CCN(c5ccccc5)CC4)ccc3=O)o2)c1C | inactive: -23.1%
88 | Cn1nc(C(=O)NCc2ccccc2Cl)c2c1-c1ccccc1SC2 | inactive: 28.8%
89 | CCN(CC)c1nn2c(=O)c(C(=O)NCc3ccccc3Br)cnc2s1 | inactive: 3%
90 | COc1ccc(CCNC(=O)c2ccc3c(c2)CCN3S(=O)(=O)c2ccc(C)cc2)cc1OC | inactive: -4.65%
91 | CCC1CCCCN1C(=O)Cn1c(=O)n(-c2ccc(Cl)c(Cl)c2)c(=O)c2c(C)c(C(=O)N(C)C)sc21 (configuration not stated) | inactive: 0.533%
92 | CC(C)OCCCn1c(SCc2ccccc2Cl)nc2c(sc3ccccc32)c1=O | inactive: -0.442%
93 | CCOc1ccc(NC(=O)CSc2cn(CC(=O)N3CCOCC3)c3ccccc23)cc1 | inactive: 12.2%
94 | CCC1CN(C(=O)N2CCC(C(=O)NCCC3=CCCCC3)CC2)c2ccccc2O1 (configuration not stated) | inactive: -0.669%
95 | CCC(Cc1ccccc1)NC(=O)c1cccc(Nc2nc3ccccc3nc2-n2nc(C)cc2C)c1 (configuration not stated) | inactive: -0.0968%
96 | CC(=O)Nc1c(C)nn(-c2ccccc2)c1N1CCC(C(=O)NCc2cccc(F)c2)CC1 | inactive: -1.44%
97 | CCN(c1cc(C)cc(C)c1)S(=O)(=O)c1nnc(NC(=O)c2ccccc2C)s1 | inactive: -0.612%
